Experimental data as given in PubChem BioAssay AID504832 (National Center for Advancing Translational Sciences (NCATS), 2011).
About 18,000 (5.8%) of roughly 310,000 compounds were called active. The inconclusive results got no clear call from the source; some entries with a clear call stand among them for comparison. Calls come from the whole dose curve; as a rule, active = well fitted inhibition curve with a large enough effect; inconclusive = small, poorly fitted or top-dose-only effect, or another doubt; inactive = no such curve, though single readings can be large or run the other way. Potencies of inconclusive entries are left out as doubtful fits.

test: Primary qHTS for delayed death inhibitors of the malarial parasite plastid, 48 hour incubation; settings: P. falciparum luciferase growth in erythrocytes; series mostly up to 28.7 µM
How it was run: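 Parasite viability was followed by luminescence of a genomically integrated firefly luciferase. Cultures held 0.1% parasitemia at 2% hematocrit (final), incubated under 5% CO2 at 37 C.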
Potency is the fitted concentration of half-maximal effect; tags give direction and shape of the fitted curve.

**Q.** For `CC1(OC(=O)C2CCCC2)C(=O)C=C2C=C(c3ccsc3)N(Cc3ccccc3)C=C2C1=O` (stereo not given), which Potency is on record?
**A.** The Potency was active: 11.7 µM.

**Q.** For `Cc1ccc(C)c(N2N=C(C(=O)Nc3ccc(N4CCOCC4)cc3)CCC2=O)c1`, which Potency is on record?
**A.** The Potency was inconclusive [inhibitor, partial curve, poor fit].

**Q.** With `O=C(N/N=C/c1ccccn1)c1cc(-c2ccncc2)nc2ccccc12` as the molecule, how does the Potency read?
**A.** Its Potency is inconclusive [inhibitor, single point].

**Q.** For `Cc1nn(-c2ccccc2)c(C)c1/C=N/n1c(-c2ccncc2)n[nH]c1=S`, which Potency is on record?
**A.** Its Potency is inconclusive [inhibitor, partial curve, poor fit].

**Q.** With `COc1ccc(/C=N/NC(=O)c2ccc(OC)c(OC)c2)cc1COc1c(F)c(F)c(F)c(F)c1F` as the molecule, how does the Potency read?
**A.** Its Potency is “inactive”.

**Q.** With `CCCCCCc1cc2cc(-c3nnc(-c4ccccc4O)o3)c(=O)oc2cc1O` as the molecule, how does the Potency read?
**A.** Its Potency is “inactive”.

**Q.** Which Potency does the source give for `CCC(=O)N1CCc2cc(Br)cc(S(=O)(=O)CCC(=O)NCc3ccco3)c21` here?
**A.** Its Potency is active: 8.28 µM.

**Q.** Which Potency does the source give for `CN(CC(=O)Nc1ccc(F)cc1)C(=O)COC(=O)c1ccccc1` here?
**A.** The Potency was inconclusive [inhibitor, single point].

**Q.** Which Potency does the source give for `CC(C)OCCCn1c(-c2ccco2)nc2nc3ccccc3nc21` here?
**A.** Its Potency is inconclusive [inhibitor, partial curve, poor fit].

**Q.** Which Potency does the source give for `COc1ccc(S(=O)(=O)Nc2ccc(O)c3ccccc23)cc1` here?
**A.** Its Potency is inconclusive [inhibitor, full curve, poor fit].

**Q.** With `c1cncc(CNc2ncnc3ccc(-c4cccnc4)cc23)c1` as the molecule, how does the Potency read?
**A.** The Potency was inconclusive [inhibitor, single point].

**Q.** Which Potency does the source give for `O=C(Nc1ccc2nc3n(c(=O)c2c1)CCCCC3)c1c(F)ccc([N+](=O)[O-])c1F` here?
**A.** The Potency was inconclusive [inhibitor, single point].

**Q.** For `Oc1cc(-c2cccnc2)cc2cccnc12`, which Potency is on record?
**A.** The Potency was active: 7.38 µM.

**Q.** Which Potency does the source give for `CCCCCC(=O)Nc1cc(S(=O)(=O)N2CCOCC2)ccc1N1CCCCC1` here?
**A.** Its Potency is inconclusive [inhibitor, partial curve, poor fit].

**Q.** Which Potency does the source give for `O=[N+]([O-])c1ccc(Cl)c([N+](=O)[O-])c1` here?
**A.** Its Potency is active: 10.4 µM.

**Q.** For `O=[N+]([O-])c1ccc(N2CCCCC2)cc1`, which Potency is on record?
**A.** The Potency was “inactive”.

**Q.** With `Cc1ccccc1CS(=O)(=O)c1cn(CC(=O)N2CCC(C)CC2)c2ccccc12` as the molecule, how does the Potency read?
**A.** Its Potency is inconclusive [inhibitor, partial curve].

**Q.** Which Potency does the source give for `COc1ccc(NC2=CC(c3cccc(OC)c3)N(c3ccc(OC)cc3)C2=O)cc1` (stereo not given) here?
**A.** The Potency was inconclusive [inhibitor, single point].

**Q.** Which Potency does the source give for `O=C(Cn1cnc([N+](=O)[O-])n1)NCCc1ccccc1` here?
**A.** Its Potency is inconclusive [inhibitor, full curve, poor fit].

**Q.** For `COCCn1c(-c2ccc(OC)cc2)nc2oc3cc(OC)ccc3c(=O)c2c1=O`, which Potency is on record?
**A.** Its Potency is inconclusive [inhibitor, partial curve, poor fit].

**Q.** Which Potency does the source give for `O=c1[nH]c(COc2ccc(Br)cc2Cl)nc2ccccc12` here?
**A.** The Potency was “inactive”.

**Q.** Which Potency does the source give for `Cc1cccc(Nc2nc3c(S(=O)(=O)c4ccccc4)nnn3c3ccccc23)c1C` here?
**A.** The Potency was inconclusive [inhibitor, partial curve].

**Q.** With `Cc1ccc(NCc2ccccc2)cc1` as the molecule, how does the Potency read?
**A.** Its Potency is “inactive”.

**Q.** Which Potency does the source give for `CC(C)(C)C(=O)Nc1nc2c(s1)CN(Cc1ccccc1)CC2` here?
**A.** Its Potency is inconclusive [inhibitor, single point].

**Q.** With `COc1cccc(OC)c1CN1CCCC(C(=O)c2cccc(Cl)c2)C1` (stereo not given) as the molecule, how does the Potency read?
**A.** Its Potency is inconclusive [inhibitor, partial curve].

**Q.** With `Cc1ccc(OCCOC(=O)CN2C(=O)NC3(CCCC3)C2=O)cc1` as the molecule, how does the Potency read?
**A.** Its Potency is “inactive”.

**Q.** With `CS(=O)(=O)N(CC(=O)Nc1ccccc1C(=O)N1CCCC1)c1ccc2c(c1)OCO2` as the molecule, how does the Potency read?
**A.** Its Potency is “inactive”.

**Q.** For `CCOC(=O)c1c(NC(=O)CCN2CCOCC2)sc2c1CC(C)(C)OC2`, which Potency is on record?
**A.** Its Potency is inconclusive [inhibitor, partial curve, poor fit].

**Q.** Which Potency does the source give for `COc1ccc(N2CCN(C(=O)CN(c3ccc(OC)cc3)S(=O)(=O)c3ccccc3)CC2)cc1` here?
**A.** The Potency was active: 11.7 µM.

**Q.** For `Clc1ccc(C(c2nnnn2C2CCCC2)N2CCN(Cc3ccncc3)CC2)cc1` (stereo not given), which Potency is on record?
**A.** Its Potency is inconclusive [inhibitor, partial curve].

**Q.** For `O=c1c(Cl)c(N2CCN(S(=O)(=O)c3ccc(F)cc3)CC2)cnn1-c1cccc(Cl)c1`, which Potency is on record?
**A.** Its Potency is active: 8.28 µM.

**Q.** For `Cc1cc(Nc2ccc(C)c(F)c2)n2ncnc2n1`, which Potency is on record?
**A.** The Potency was active: 1.47 µM.

**Q.** With `O=C(CSc1nc(C2CCCCC2)n(-c2ccccc2)n1)NCC(F)(F)F` as the molecule, how does the Potency read?
**A.** The Potency was “inactive”.

**Q.** For `CC(C)(C)NS(=O)(=O)c1ccc(OCC(=O)Nc2ccc3c(c2)OCCO3)cc1`, which Potency is on record?
**A.** Its Potency is inconclusive [inhibitor, partial curve, poor fit].

**Q.** With `CN(CCO)c1ccc(C(C(=O)c2ccccc2)c2ccc(N(C)CCO)cc2)cc1` as the molecule, how does the Potency read?
**A.** Its Potency is inconclusive [inhibitor, single point].

**Q.** With `CN(C)c1ccc(NC(=O)c2cccc([N+](=O)[O-])c2)c2ccccc12` as the molecule, how does the Potency read?
**A.** Its Potency is “inactive”.

**Q.** With `Nc1nc(SCc2ccc(F)cc2)n[nH]1` as the molecule, how does the Potency read?
**A.** The Potency was “inactive”.

**Q.** With `CC(C)(C)OC(=O)NCCOC(=O)c1[nH]cnc1C(=O)NCc1ccccc1` as the molecule, how does the Potency read?
**A.** Its Potency is inconclusive [inhibitor, partial curve, poor fit].

**Q.** With `COC(=O)c1[nH]c2ccc(Br)cc2c1NC(=O)CN1CCCCC1CCO` (stereo not given) as the molecule, how does the Potency read?
**A.** Its Potency is inconclusive [inhibitor, single point].

**Q.** With `CCc1nc(NCc2cccnc2)c2oc3ccccc3c2n1` as the molecule, how does the Potency read?
**A.** Its Potency is inconclusive [inhibitor, partial curve, poor fit].

**Q.** For `COc1ccc(C2c3c(ncn(CCCN4CCOCC4)c3=N)Oc3ccc4ccccc4c32)cc1OC` (stereo not given), which Potency is on record?
**A.** Its Potency is active: 4.15 µM.

**Q.** Which Potency does the source give for `Cc1cc(NC(=O)CSc2nc3c([nH]c4ccccc43)c(=O)n2-c2cccc(C(F)(F)F)c2)no1` here?
**A.** Its Potency is active: 11.7 µM.

**Q.** With `Cc1cc(C)c2c(CC(=O)N(CCC#N)Cc3cccnc3)coc2c1` as the molecule, how does the Potency read?
**A.** The Potency was inconclusive [inhibitor, single point].

**Q.** With `O=C(/C=C/c1ccc(Cl)cc1)NC(=S)Nc1ccc(NC(=O)c2ccco2)cc1` as the molecule, how does the Potency read?
**A.** Its Potency is “inactive”.

**Q.** For `COC(=O)Nc1ccc(S(=O)(=O)N2CCC(C(=O)N3CCCC(C)C3)CC2)cc1` (stereo not given), which Potency is on record?
**A.** The Potency was “inactive”.

**Q.** Which Potency does the source give for `CCOC(=O)CCSc1nc2c(c(C(F)(F)F)c1C#N)CCC2` here?
**A.** The Potency was active: 9.28 µM.

**Q.** For `CCn1cnc2cc(NS(=O)(=O)c3ccc(C)cc3)ccc21`, which Potency is on record?
**A.** The Potency was inconclusive [inhibitor, single point].

**Q.** For `COc1ccc(NC(=S)N(CCC(C)C)C2CCN(C(C)C)CC2)cc1`, which Potency is on record?
**A.** The Potency was “inactive”.

**Q.** With `Cc1nn(-c2ccccc2)c(Cl)c1/C=N/Nc1nc2ccccc2n1C` as the molecule, how does the Potency read?
**A.** Its Potency is “inactive”.

**Q.** For `COc1ccc(/C=C/C(=O)Nc2ccc(-c3nnc4n3CCCCC4)cc2)c(OC)c1`, which Potency is on record?
**A.** The Potency was “inactive”.

**Q.** Which Potency does the source give for `Cc1ccc(NC(=O)Cn2c(=O)c3cccn3c3ccccc32)c(Cl)c1` here?
**A.** The Potency was “inactive”.

**Q.** With `N#CCC(=O)N/N=C\c1ccccc1OC/C=C/c1ccccc1` as the molecule, how does the Potency read?
**A.** Its Potency is “inactive”.

**Q.** With `CCOC(=O)c1cnc2oc3ccccc3n2c1=O` as the molecule, how does the Potency read?
**A.** The Potency was “inactive”.

**Q.** Which Potency does the source give for `O=C(C[n+]1ccn(CCCNP2(=O)C=C(c3ccccc3)OC(c3ccccc3)=C2)c1)c1cccs1` here?
**A.** Its Potency is inconclusive [inhibitor, full curve, poor fit].

**Q.** Which Potency does the source give for `COc1ccc(/C=C/C(=O)c2cc3c(cc2N)OCO3)cc1` here?
**A.** Its Potency is “inactive”.

**Q.** For `COc1ccc(-c2cc(C(=O)Nc3c(C)nn(Cc4ccccc4Cl)c3C)no2)cc1OC`, which Potency is on record?
**A.** Its Potency is inconclusive [inhibitor, partial curve, poor fit].

**Q.** With `CC1Sc2ccc(C(=O)Nc3cc(S(C)(=O)=O)ccc3Cl)cc2NC1=O` (stereo not given) as the molecule, how does the Potency read?
**A.** The Potency was inconclusive [inhibitor, single point].

**Q.** With `CC1CCC(C(C)C)C(OP(=O)(c2ccc(N(C)C)cc2)C(O)c2cccnc2)C1` (stereo not given) as the molecule, how does the Potency read?
**A.** The Potency was inconclusive [inhibitor, partial curve, poor fit].

**Q.** Which Potency does the source give for `CCN(CC)CCCn1c(C)cc2c(c1=O)C(c1ccc(OC)c(OC)c1OC)C(C#N)=C(N)O2` (stereo not given) here?
**A.** The Potency was inconclusive [inhibitor, single point].

**Q.** Which Potency does the source give for `O=S(=O)(c1cccc(S(=O)(=O)N2CCC(n3nnc4ccccc43)CC2)c1)N1CCCCC1` here?
**A.** Its Potency is inconclusive [inhibitor, single point].

**Q.** Which Potency does the source give for `O=C(OCC(=O)N1CCCc2ccccc21)c1ccc(S(=O)(=O)C(F)F)cc1` here?
**A.** Its Potency is inconclusive [inhibitor, single point].

**Q.** Which Potency does the source give for `Cc1occc1-c1nnc(SCC(=O)NCCc2ccccc2)n1C(C)c1ccccc1` (stereo not given) here?
**A.** Its Potency is inconclusive [inhibitor, single point].

**Q.** For `Cc1ccc(CNCC(O)(c2ccc(F)cc2)c2ccc(F)cc2)cc1`, which Potency is on record?
**A.** The Potency was inconclusive [inhibitor, full curve].

**Q.** With `CC(C)Oc1ccc(C(=O)Nc2ccc(S(=O)(=O)N3CCN(C)CC3)cc2)cc1` as the molecule, how does the Potency read?
**A.** The Potency was inconclusive [inhibitor, partial curve].

**Q.** With `Cc1ccccc1N1CCN(C2CCCN(C(=O)c3cn4cccc(C)c4n3)C2)CC1` (stereo not given) as the molecule, how does the Potency read?
**A.** The Potency was inconclusive [inhibitor, single point].

**Q.** With `COc1ccc(S(=O)(=O)N2CCCCCC2)cc1C(=O)OCc1c(C)noc1C` as the molecule, how does the Potency read?
**A.** Its Potency is inconclusive [inhibitor, partial curve].

**Q.** Which Potency does the source give for `Cc1c(C(=O)N(C)C)c2ccc(Cl)cc2n1O` here?
**A.** Its Potency is “inactive”.

**Q.** For `CCc1nc2ccccc2[nH]c1=O`, which Potency is on record?
**A.** The Potency was “inactive”.

**Q.** Which Potency does the source give for `COCCc1ncc(CN2CCC(C(=O)Nc3ccc(-n4cccn4)cc3)CC2)cn1` here?
**A.** Its Potency is inconclusive [inhibitor, partial curve].

**Q.** For `O=C(c1cc(C2CC2)nn1-c1ccccc1)N1CCN(Cc2ccccc2F)CC1`, which Potency is on record?
**A.** The Potency was inconclusive [inhibitor, single point].
